Experimental data from the supplement of paper PMC8728848.
The list shows a part of the results.

Columns and labels:
Experiment in all cases: glycan array binding signal (z-score within array); higher = stronger binding
Details in all cases: glycan notation: IUPAC condensed, linker removed
[1] = target: GlcNAc(b1-3)[GlcNAc(b1-4)][GlcNAc(b1-6)]GlcNAc
In short: (§1)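 The binding signal is a Z-score computed within each array and averaged over linkers. Arrays of the same protein sequence at different concentrations or buffers were also averaged together. Data originate from 3228 arrays in the Consortium for Functional Glycomics database, kept only where the protein sequence was available.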

[2] = target: GlcNAc(b1-3)[GlcNAc(b1-6)]Gal(b1-4)GlcNAc
In short: as §1

[3] = target: GlcNAc(b1-3)[GlcNAc(b1-6)]GalNAc
In short: as §1

[4] = target: GlcNAc(b1-4)Gal(b1-4)GlcNAc
In short: as §1

GlcNAc(b1-4)GlcNAc = target: GlcNAc(b1-4)GlcNAc
In short: as §1

[5] = target: GlcNAc(b1-4)GlcNAc(b1-4)GlcNAc
In short: as §1

[6] = target: GlcNAc(b1-4)GlcNAc(b1-4)GlcNAc(b1-4)GlcNAc(b1-4)GlcNAc
In short: as §1

[7] = target: GlcNAc(b1-4)GlcNAc(b1-4)GlcNAc(b1-4)GlcNAc(b1-4)GlcNAc(b1-4)GlcNAc
In short: as §1

[8] = target: GlcNAc(b1-4)[GlcNAc(b1-6)]GalNAc
In short: as §1

[9] = target: GlcNAc(b1-6)Gal(b1-4)GlcNAc
In short: as §1

GlcNAc(b1-6)GalNAc = target: GlcNAc(b1-6)GalNAc
In short: as §1

[10] = target: GlcNAc6S(b1-3)Gal(b1-4)GlcNAc
In short: as §1

Kdn(a2-3)Gal(b1-3)GalNAc = target: Kdn(a2-3)Gal(b1-3)GalNAc
In short: as §1

Kdn(a2-3)Gal(b1-3)GlcNAc = target: Kdn(a2-3)Gal(b1-3)GlcNAc
In short: as §1

Kdn(a2-3)Gal(b1-4)Glc = target: Kdn(a2-3)Gal(b1-4)Glc
In short: as §1

Kdn(a2-3)Gal(b1-4)GlcNAc = target: Kdn(a2-3)Gal(b1-4)GlcNAc
In short: as §1

[11] = target: Kdn(a2-3)Gal(b1-4)[Fuc(a1-3)]GlcNAc
In short: as §1

Kdn(a2-6)Gal(b1-4)GlcNAc = target: Kdn(a2-6)Gal(b1-4)GlcNAc
In short: as §1

[12] = target: Man(a1-2)Man(a1-2)Man(a1-3)Man
In short: as §1

[13] = target: Man(a1-2)Man(a1-2)Man(a1-6)[Man(a1-3)]Man
In short: as §1

Man(a1-2)Man(a1-3)Man = target: Man(a1-2)Man(a1-3)Man
In short: as §1

[14] = target: Man(a1-2)Man(a1-3)[Man(a1-2)Man(a1-6)]Man
In short: as §1

[15] = target: Man(a1-2)Man(a1-3)[Man(a1-2)Man(a1-6)]Man(a1-6)[Man(a1-2)Man(a1-2)Man(a1-3)]Man
In short: as §1

[16] = target: Man(a1-2)Man(a1-3)[Man(a1-2)Man(a1-6)]Man(a1-6)[Man(a1-2)Man(a1-2)Man(a1-3)]Man(b1-4)GlcNAc(b1-4)GlcNAc
In short: as §1

[17] = target: Man(a1-2)Man(a1-3)[Man(a1-6)]Man(a1-6)[Man(a1-2)Man(a1-3)]Man(b1-4)GlcNAc(b1-4)GlcNAc
In short: as §1

[18] = target: Man(a1-2)Man(a1-6)[Man(a1-3)]Man(a1-6)[Man(a1-2)Man(a1-2)Man(a1-3)]Man
In short: as §1

[19] = target: Man(a1-2)Man(a1-6)[Man(a1-3)]Man(a1-6)[Man(a1-2)Man(a1-2)Man(a1-3)]Man(b1-4)GlcNAc(b1-4)GlcNAc
In short: as §1

Man(a1-3)[Man(a1-6)]Man = target: Man(a1-3)[Man(a1-6)]Man
In short: as §1

[20] = target: Man(a1-3)[Man(a1-6)]Man(a1-6)[Man(a1-2)Man(a1-3)]Man(b1-4)GlcNAc(b1-4)GlcNAc
In short: as §1

[21] = target: Man(a1-3)[Man(a1-6)]Man(a1-6)[Man(a1-3)]Man
In short: as §1

[22] = target: Man(a1-3)[Man(a1-6)]Man(a1-6)[Man(a1-3)]Man(b1-4)GlcNAc(b1-4)GlcNAc
In short: as §1

[23] = target: Man(a1-3)[Man(a1-6)]Man(b1-4)GlcNAc(b1-4)GlcNAc
In short: as §1

[24] = target: Man(a1-3)[Man(a1-6)]Man(b1-4)GlcNAc(b1-4)[Fuc(a1-6)]GlcNAc
In short: as §1

Man(a1-6)Man = target: Man(a1-6)Man
In short: as §1

Man(b1-4)GlcNAc = target: Man(b1-4)GlcNAc
In short: as §1

MurNAc(b1-4)GlcNAc = target: MurNAc(b1-4)GlcNAc
In short: as §1

Neu5Ac(a2-3)Gal = target: Neu5Ac(a2-3)Gal
In short: as §1

[25] = target: Neu5Ac(a2-3)Gal(b1-3)GalNAc
In short: as §1

B1: CaSRK1 (Capsicum annuum) (protein)
chain: MALCKIFPFAFILLSCSCYLISGQRFDYPTANLSTTWINSVSAPHSIDYTDGSRIRAILLRGTFGPRYACGFYCNGNCESYLFAIFIVQTNSASQITSPAIGFPQVVWSANRNNPVKINSTLQLTAEGDLVLRDADGTLAWSTNTAGKSVAGLSLTDEGNLALFDSKNATVWQSFDHPTDALVPGQKLVPGMKLTASVSRTNWTAGGLFALSAIDNGLVAFVESNPPQKYFEASVGGSNTSGGSNYVKYLNGSLTLFTHSADTTELILISITPASSAQYMKLESNGHLKVYEWTSRGWREVDDLLTGFRGECNYPTVCGRYGICTMGQCSCPTSSSSRTYFRPIDVRRPSLGCSEVTKLTCQNTKKHSPLEVEDVDYFAFKAGISDTDLNTCKRACLEKCSCKAAFFRSGLNSSRTRGDCYLPTEIFSIMNNEKDRTRYDSVAFIKVQV
glycan array binding signal (z-score) [1]: -0.34
glycan array binding signal (z-score) [2]: -0.584
glycan array binding signal (z-score) [3]: -0.385
glycan array binding signal (z-score) [4]: 0.409
glycan array binding signal (z-score) (GlcNAc(b1-4)GlcNAc): 0.981
glycan array binding signal (z-score) [5]: -0.175
glycan array binding signal (z-score) [6]: 0.244
glycan array binding signal (z-score) [7]: 0.204
glycan array binding signal (z-score) [8]: -0.498
glycan array binding signal (z-score) [9]: -0.346
glycan array binding signal (z-score) (GlcNAc(b1-6)GalNAc): -0.338
glycan array binding signal (z-score) [10]: 0.214
glycan array binding signal (z-score) (Kdn(a2-3)Gal(b1-3)GalNAc): 0.159
glycan array binding signal (z-score) (Kdn(a2-3)Gal(b1-3)GlcNAc): -0.595
glycan array binding signal (z-score) (Kdn(a2-3)Gal(b1-4)Glc): 0.342
glycan array binding signal (z-score) (Kdn(a2-3)Gal(b1-4)GlcNAc): -0.527
glycan array binding signal (z-score) [11]: 0.155
glycan array binding signal (z-score) (Kdn(a2-6)Gal(b1-4)GlcNAc): -0.241
glycan array binding signal (z-score) [12]: -0.147
glycan array binding signal (z-score) [13]: -0.297
glycan array binding signal (z-score) (Man(a1-2)Man(a1-3)Man): -0.29
glycan array binding signal (z-score) [14]: -0.519
glycan array binding signal (z-score) [15]: -0.515
glycan array binding signal (z-score) [16]: -0.033
glycan array binding signal (z-score) [17]: -0.406
glycan array binding signal (z-score) [18]: -0.436
glycan array binding signal (z-score) [19]: 0.271
glycan array binding signal (z-score) (Man(a1-3)[Man(a1-6)]Man): 0.116
glycan array binding signal (z-score) [20]: -0.258
glycan array binding signal (z-score) [21]: -0.303
glycan array binding signal (z-score) [22]: -0.434
glycan array binding signal (z-score) [23]: -0.191
glycan array binding signal (z-score) [24]: -0.531
glycan array binding signal (z-score) (Man(a1-6)Man): 1.5
glycan array binding signal (z-score) (Man(b1-4)GlcNAc): 0.041
glycan array binding signal (z-score) (MurNAc(b1-4)GlcNAc): -0.305
glycan array binding signal (z-score) (Neu5Ac(a2-3)Gal): 0.157
glycan array binding signal (z-score) [25]: -0.512
